Laboratory results: patent US9085549B2, “Compounds for the treatment of neurodegenerative diseases” (ProteoTech Inc., priority 2011, dated 2015)
Like-named read-outs stand apart in the source and are kept apart here. At least one structure is not confirmed: it was looked up by name or label, or the drawing left a doubt. Some compounds share one wording; it may come from a single statement.

Legend:
α-synuclein = α-synuclein (Homo sapiens (Human), UniProt P37840); assay: Circular dichroism spectroscopy: inhibition of α-synuclein β-sheet formation; assay type: biochemical
Description: For this purpose, α-synuclein was obtained from rPeptide as a lyophilized salt in 1 mg aliquots. Buffer components and other solvents were obtained from Sigma as A.C.S. Reagent grade or higher. […] After 24 hours, reactions were diluted 20-fold in PBS and CD spectra for each reaction were acquired on a Jasco J-810 spectropolarimeter using a 0.1 cm path length cell. All spectra were recorded with a step size of 0.1 nm, a bandwidth of 1 nm, and an α-synuclein concentration of 0.05 mg/ml. The spectra were trimmed at the shortest wavelength that still provided a dynode voltage less than 600V. The trimmed spectra were then subjected to a data processing routine beginning with noise reduction by Fourier transform followed by subtraction of a blank spectrum (vehicle only without α-synuclein). These blank corrected spectra were then zeroed at 260 nm and the units converted from millidegrees to specific ellipticity.
These percent β-sheet values were then used to provide the respective relative % inhibition of β-sheet induced by the compounds at given molar ratio of test compound:α-synuclein.

α-synuclein fibrils [1] = target: T1, α-synuclein fibrils (Homo sapiens (Human), UniProt P37840); assay: Thioflavin T fluorometry: disruption/disaggregation of pre-formed α-synuclein fibrils; assay type: biochemical
Description: The biological activity of the compounds provided herein as disruptors/inhibitors of Parkinson's disease α-synuclein fibrils was assessed by determining the efficacy of the compounds to cause a disassembly/disruption of pre-formed Parkinson's disease α-synuclein fibrils. In one study, Thioflavin T fluorometry was used to determine the effects of the compounds, and […]).
In one study, Thioflavin T fluorometry was used to determine the effects of the compounds on α-synuclein fibrils. In addition to test compounds, this experiment included a positive control compound and a negative control compound for reference.
For each compound, the % inhibition of Thioflavin T fluorescence (i.e. the decrease compared to control reactions containing α-synuclein alone) was plotted against the log of the concentration of the test compound (expressed as mole ratio relative to α-synuclein).

[2] = system: A53T α-synuclein-expressing BE-M17 cells; assay: XTT assay: rotenone-induced cell death; assay type: cell-based, human
[3] = system: BE-M17 human neuroblastoma cells stably transfected with A53T-mutant human α-synuclein; assay: Thioflavin S staining of rotenone-induced α-synuclein aggregates in cells; assay type: cell-based
α-synuclein fibrils [4] = target: T1, α-synuclein fibrils
TauRD = TauRD (Homo sapiens (Human), UniProt P10636); assay: Circular dichroism spectroscopy: tau protein β-sheet formation; conditions: semi-quantitative CD score, aggregated TauRD
Chain of TauRD (P10636 561-689): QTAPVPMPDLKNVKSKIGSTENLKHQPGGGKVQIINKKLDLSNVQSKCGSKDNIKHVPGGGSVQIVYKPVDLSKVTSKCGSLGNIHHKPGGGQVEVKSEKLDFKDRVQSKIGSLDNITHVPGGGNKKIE

Compound	IC50 (mole ratio) (α-synuclein)	EC50 (mole ratio) (α-synuclein fibrils [1])	disruption/disassembly of preformed α-synuclein fibrils (in words) (α-synuclein fibrils [1])	inhibition of rotenone-induced cell death (in words) [2]	inhibition of rotenone-induced Thioflavin S-positive inclusions (in words) [3]	EC50 (mole ratio) (α-synuclein fibrils [4])	CD (TauRD)
O=C(/C=C/c1ccc(O)c(O)c1)c1ccc(O)c(O)c1 [SA-94]	0.22 mole ratio	0.15 mole ratio	dose-dependent and extensive disruption/disassembly	significant, dose-dependent inhibition	significant disruption/prevention/inhibition	4.5 mole ratio	−
CC(=O)N1N=C(c2ccc(O)c(O)c2)CC1c1ccc(O)c(O)c1 (stereo not drawn) [SA-98]	0.08 mole ratio	0.65 mole ratio	dose-dependent and extensive disruption/disassembly	significant, dose-dependent inhibition	significant disruption/prevention/inhibition	10.1 mole ratio	
Oc1ccc(-c2cnc(-c3ccc(O)c(O)c3)o2)cc1O [SA-70]	0.25 mole ratio	0.17 mole ratio	dose-dependent and extensive disruption/disassembly	significant, dose-dependent inhibition		3.4 mole ratio	
